# Measured values reported in the supplement of paper PMC8728848.
# The list shows a part of the results.
# B1: CFEM-PPm (Pichia pastoris), F2QPV1 (protein)
# chain: AVATPPACLLACAAEVVKESSDCDALNNIQCICENEGSAIHACLESTCPDGLSSTALQSFEDVCE
# What was measured:
# Experiment in all cases: glycan array binding signal (z-score within array); higher = stronger binding
# Conditions in all cases: glycan notation: IUPAC condensed, linker removed
# [1] = target: GlcNAc(a1-6)Gal(b1-4)GlcNAc
# Outline: (§1)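 Negative Z-scores can be read as non-binding. The Z-score is calculated within each array and then averaged across arrays of one protein sequence at different concentrations or buffers and across linkers. Arrays, 3228 in all, were curated from the Consortium for Functional Glycomics database and kept only where the protein sequence was available.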
# [2] = target: GlcNAc(b1-2)Gal(b1-3)GalNAc
# Outline: as §1
# [3] = target: GlcNAc(b1-2)Man(a1-3)[GlcNAc(b1-2)Man(a1-6)]Man(b1-4)GlcNAc(b1-4)GlcNAc
# Outline: as §1
# [4] = target: GlcNAc(b1-2)Man(a1-3)[GlcNAc(b1-2)Man(a1-6)]Man(b1-4)GlcNAc(b1-4)[Fuc(a1-6)]GlcNAc
# Outline: as §1
# [5] = target: GlcNAc(b1-2)Man(a1-3)[GlcNAc(b1-4)][GlcNAc(b1-2)Man(a1-6)]Man(b1-4)GlcNAc(b1-4)GlcNAc
# Outline: as §1
# [6] = target: GlcNAc(b1-2)Man(a1-3)[GlcNAc(b1-4)][GlcNAc(b1-2)Man(a1-6)]Man(b1-4)GlcNAc(b1-4)[Fuc(a1-6)]GlcNAc
# Outline: as §1
# [7] = target: GlcNAc(b1-2)[GlcNAc(b1-4)]Man(a1-3)[GlcNAc(b1-2)Man(a1-6)]Man(b1-4)GlcNAc(b1-4)GlcNAc
# Outline: as §1
# [8] = target: GlcNAc(b1-2)[GlcNAc(b1-4)]Man(a1-3)[GlcNAc(b1-4)][GlcNAc(b1-2)Man(a1-6)]Man(b1-4)GlcNAc(b1-4)GlcNAc
# Outline: as §1
# [9] = target: GlcNAc(b1-2)[GlcNAc(b1-4)]Man(a1-3)[GlcNAc(b1-4)][GlcNAc(b1-2)[GlcNAc(b1-6)]Man(a1-6)]Man(b1-4)GlcNAc(b1-4)GlcNAc
# Outline: as §1
# [10] = target: GlcNAc(b1-2)[GlcNAc(b1-4)]Man(a1-3)[GlcNAc(b1-4)][GlcNAc(b1-2)[GlcNAc(b1-6)]Man(a1-6)]Man(b1-4)GlcNAc(b1-4)[Fuc(a1-6)]GlcNAc
# Outline: as §1
# [11] = target: GlcNAc(b1-2)[GlcNAc(b1-6)]Man(a1-6)[GlcNAc(b1-2)Man(a1-3)]Man(b1-4)GlcNAc(b1-4)GlcNAc
# Outline: as §1
# [12] = target: GlcNAc(b1-2)[GlcNAc(b1-6)]Man(a1-6)[GlcNAc(b1-2)Man(a1-3)]Man(b1-4)GlcNAc(b1-4)[Fuc(a1-6)]GlcNAc
# Outline: as §1
# [13] = target: GlcNAc(b1-2)[GlcNAc(b1-6)]Man(a1-6)[GlcNAc(b1-4)][GlcNAc(b1-2)Man(a1-3)]Man(b1-4)GlcNAc(b1-4)GlcNAc
# Outline: as §1
# [14] = target: GlcNAc(b1-3)Fuc
# Outline: as §1
# [15] = target: GlcNAc(b1-3)Gal
# Outline: as §1
# [16] = target: GlcNAc(b1-3)Gal(b1-3)GalNAc
# Outline: as §1
# [17] = target: GlcNAc(b1-3)Gal(b1-4)Glc
# Outline: as §1
# [18] = target: GlcNAc(b1-3)Gal(b1-4)GlcNAc
# Outline: as §1
# [19] = target: GlcNAc(b1-3)Gal(b1-4)GlcNAc(b1-2)Man(a1-3)[GlcNAc(b1-3)Gal(b1-4)GlcNAc(b1-2)Man(a1-6)]Man(b1-4)GlcNAc(b1-4)GlcNAc
# Outline: as §1
# [20] = target: GlcNAc(b1-3)Gal(b1-4)GlcNAc(b1-2)Man(a1-3)[GlcNAc(b1-3)Gal(b1-4)GlcNAc(b1-2)Man(a1-6)]Man(b1-4)GlcNAc(b1-4)[Fuc(a1-6)]GlcNAc
# Outline: as §1
# [21] = target: GlcNAc(b1-3)Gal(b1-4)GlcNAc(b1-2)[GlcNAc(b1-3)Gal(b1-4)GlcNAc(b1-6)]Man(a1-6)[GlcNAc(b1-3)Gal(b1-4)GlcNAc(b1-2)Man(a1-3)]Man(b1-4)GlcNAc(b1-4)GlcNAc
# Outline: as §1
# [22] = target: GlcNAc(b1-3)Gal(b1-4)GlcNAc(b1-3)Gal(b1-4)GlcNAc
# Outline: as §1
# [23] = target: GlcNAc(b1-3)Gal(b1-4)GlcNAc(b1-3)Gal(b1-4)GlcNAc(b1-2)Man(a1-3)[GlcNAc(b1-3)Gal(b1-4)GlcNAc(b1-3)Gal(b1-4)GlcNAc(b1-2)Man(a1-6)]Man(b1-4)GlcNAc(b1-4)GlcNAc
# Outline: as §1
# [24] = target: GlcNAc(b1-3)Gal(b1-4)GlcNAc(b1-3)Gal(b1-4)GlcNAc(b1-2)Man(a1-3)[GlcNAc(b1-3)Gal(b1-4)GlcNAc(b1-3)Gal(b1-4)GlcNAc(b1-2)Man(a1-6)]Man(b1-4)GlcNAc(b1-4)[Fuc(a1-6)]GlcNAc
# Outline: as §1
# [25] = target: GlcNAc(b1-3)Gal(b1-4)GlcNAc(b1-3)Gal(b1-4)GlcNAc(b1-2)[GlcNAc(b1-3)Gal(b1-4)GlcNAc(b1-3)Gal(b1-4)GlcNAc(b1-6)]Man(a1-6)[GlcNAc(b1-3)Gal(b1-4)GlcNAc(b1-3)Gal(b1-4)GlcNAc(b1-2)Man(a1-3)]Man(b1-4)GlcNAc(b1-4)[Fuc(a1-6)]GlcNAc
# Outline: as §1
# [26] = target: GlcNAc(b1-3)Gal(b1-4)GlcNAc(b1-3)Gal(b1-4)GlcNAc(b1-3)Gal(b1-4)GlcNAc(b1-2)Man(a1-3)[GlcNAc(b1-3)Gal(b1-4)GlcNAc(b1-3)Gal(b1-4)GlcNAc(b1-3)Gal(b1-4)GlcNAc(b1-2)Man(a1-6)]Man(b1-4)GlcNAc(b1-4)GlcNAc
# Outline: as §1
# [27] = target: GlcNAc(b1-3)Gal(b1-4)GlcNAc(b1-3)Gal(b1-4)GlcNAc(b1-3)Gal(b1-4)GlcNAc(b1-2)Man(a1-3)[GlcNAc(b1-3)Gal(b1-4)GlcNAc(b1-3)Gal(b1-4)GlcNAc(b1-3)Gal(b1-4)GlcNAc(b1-2)Man(a1-6)]Man(b1-4)GlcNAc(b1-4)[Fuc(a1-6)]GlcNAc
# Outline: as §1
# [28] = target: GlcNAc(b1-3)Gal(b1-4)GlcNAc(b1-3)Gal(b1-4)GlcNAc(b1-3)Gal(b1-4)GlcNAc(b1-2)[GlcNAc(b1-3)Gal(b1-4)GlcNAc(b1-3)Gal(b1-4)GlcNAc(b1-3)Gal(b1-4)GlcNAc(b1-6)]Man(a1-6)[GlcNAc(b1-3)Gal(b1-4)GlcNAc(b1-3)Gal(b1-4)GlcNAc(b1-3)Gal(b1-4)GlcNAc(b1-2)Man(a1-3)]Man(b1-4)GlcNAc(b1-4)[Fuc(a1-6)]GlcNAc
# Outline: as §1
# [29] = target: GlcNAc(b1-3)Gal(b1-4)GlcNAc(b1-3)Gal(b1-4)GlcNAc(b1-3)Gal(b1-4)GlcNAc(b1-3)Gal(b1-4)GlcNAc(b1-2)Man(a1-3)[GlcNAc(b1-3)Gal(b1-4)GlcNAc(b1-3)Gal(b1-4)GlcNAc(b1-3)Gal(b1-4)GlcNAc(b1-3)Gal(b1-4)GlcNAc(b1-2)Man(a1-6)]Man(b1-4)GlcNAc(b1-4)GlcNAc
# Outline: as §1
# [30] = target: GlcNAc(b1-3)Gal(b1-4)GlcNAc(b1-3)Gal(b1-4)GlcNAc(b1-3)Gal(b1-4)GlcNAc(b1-3)Gal(b1-4)GlcNAc(b1-2)Man(a1-3)[GlcNAc(b1-3)Gal(b1-4)GlcNAc(b1-3)Gal(b1-4)GlcNAc(b1-3)Gal(b1-4)GlcNAc(b1-3)Gal(b1-4)GlcNAc(b1-2)Man(a1-6)]Man(b1-4)GlcNAc(b1-4)[Fuc(a1-6)]GlcNAc
# Outline: as §1
# [31] = target: GlcNAc(b1-3)Gal(b1-4)GlcNAc(b1-3)Gal(b1-4)GlcNAc(b1-3)Gal(b1-4)GlcNAc(b1-3)Gal(b1-4)GlcNAc(b1-2)[GlcNAc(b1-3)Gal(b1-4)GlcNAc(b1-3)Gal(b1-4)GlcNAc(b1-3)Gal(b1-4)GlcNAc(b1-3)Gal(b1-4)GlcNAc(b1-6)]Man(a1-6)[GlcNAc(b1-3)Gal(b1-4)GlcNAc(b1-3)Gal(b1-4)GlcNAc(b1-3)Gal(b1-4)GlcNAc(b1-3)Gal(b1-4)GlcNAc(b1-2)Man(a1-3)]Man(b1-4)GlcNAc(b1-4)[Fuc(a1-6)]GlcNAc
# Outline: as §1
# [32] = target: GlcNAc(b1-3)Gal(b1-4)GlcNAc(b1-3)Gal(b1-4)GlcNAc(b1-3)GalNAc
# Outline: as §1
# [33] = target: GlcNAc(b1-3)Gal(b1-4)GlcNAc(b1-3)GalNAc
# Outline: as §1
# [34] = target: GlcNAc(b1-3)Gal(b1-4)GlcNAc(b1-3)[GlcNAc(b1-3)Gal(b1-4)GlcNAc(b1-3)]GalNAc
# Outline: as §1
# [35] = target: GlcNAc(b1-3)Gal(b1-4)GlcNAc(b1-6)[Gal(b1-3)]GalNAc
# Outline: as §1
# [36] = target: GlcNAc(b1-3)Gal(b1-4)GlcNAc(b1-6)[GlcNAc(b1-3)Gal(b1-3)]GalNAc
# Outline: as §1
# [37] = target: GlcNAc(b1-3)Gal(b1-4)GlcNAc(b1-6)[GlcNAc(b1-3)]Gal(b1-4)GlcNAc
# Outline: as §1
# [38] = target: GlcNAc(b1-3)GalNAc
# Outline: as §1
# [39] = target: GlcNAc(b1-3)Man
# Outline: as §1
# [40] = target: GlcNAc(b1-3)[GlcNAc(b1-4)][GlcNAc(b1-6)]GlcNAc
# Outline: as §1
# [41] = target: GlcNAc(b1-3)[GlcNAc(b1-6)]Gal(b1-4)GlcNAc
# Outline: as §1
# [42] = target: GlcNAc(b1-3)[GlcNAc(b1-6)]GalNAc
# Outline: as §1
# [43] = target: GlcNAc(b1-4)Gal(b1-4)GlcNAc
# Outline: as §1
# [44] = target: GlcNAc(b1-4)GlcNAc
# Outline: as §1
# [45] = target: GlcNAc(b1-4)GlcNAc(b1-4)GlcNAc
# Outline: as §1
binder,measurement,setting,value
B1,glycan array binding signal (z-score),[1],0.716
same,glycan array binding signal (z-score),[2],0.172
same,glycan array binding signal (z-score),[3],-0.317
same,glycan array binding signal (z-score),[4],-0.277
same,glycan array binding signal (z-score),[5],-0.372
same,glycan array binding signal (z-score),[6],-0.351
same,glycan array binding signal (z-score),[7],-0.275
same,glycan array binding signal (z-score),[8],-0.031
same,glycan array binding signal (z-score),[9],-0.422
same,glycan array binding signal (z-score),[10],-0.298
same,glycan array binding signal (z-score),[11],-0.28
same,glycan array binding signal (z-score),[12],-0.245
same,glycan array binding signal (z-score),[13],-0.307
same,glycan array binding signal (z-score),[14],-0.121
same,glycan array binding signal (z-score),[15],-0.249
same,glycan array binding signal (z-score),[16],-0.209
same,glycan array binding signal (z-score),[17],-0.083
same,glycan array binding signal (z-score),[18],0.308
same,glycan array binding signal (z-score),[19],-0.281
same,glycan array binding signal (z-score),[20],-0.225
same,glycan array binding signal (z-score),[21],0.338
same,glycan array binding signal (z-score),[22],-0.289
same,glycan array binding signal (z-score),[23],0.35
same,glycan array binding signal (z-score),[24],0.138
same,glycan array binding signal (z-score),[25],-0.006
same,glycan array binding signal (z-score),[26],-0.328
same,glycan array binding signal (z-score),[27],0.205
same,glycan array binding signal (z-score),[28],-0.184
same,glycan array binding signal (z-score),[29],-0.319
same,glycan array binding signal (z-score),[30],0.013
same,glycan array binding signal (z-score),[31],-0.222
same,glycan array binding signal (z-score),[32],-0.268
same,glycan array binding signal (z-score),[33],-0.088
same,glycan array binding signal (z-score),[34],-0.333
same,glycan array binding signal (z-score),[35],0.543
same,glycan array binding signal (z-score),[36],-0.173
same,glycan array binding signal (z-score),[37],-0.353
same,glycan array binding signal (z-score),[38],-0.344
same,glycan array binding signal (z-score),[39],-0.171
same,glycan array binding signal (z-score),[40],-0.165
same,glycan array binding signal (z-score),[41],-0.302
same,glycan array binding signal (z-score),[42],-0.272
same,glycan array binding signal (z-score),[43],-0.189
same,glycan array binding signal (z-score),[44],-0.195
same,glycan array binding signal (z-score),[45],-0.364
